Experimental findings from paper PMC12820563 are described below.

Some of the results follow. The list includes weakly bound sequences.

In this test the target is T1, MBP-FoxP3dN (UniProt Q99JB6).
T1 sequence: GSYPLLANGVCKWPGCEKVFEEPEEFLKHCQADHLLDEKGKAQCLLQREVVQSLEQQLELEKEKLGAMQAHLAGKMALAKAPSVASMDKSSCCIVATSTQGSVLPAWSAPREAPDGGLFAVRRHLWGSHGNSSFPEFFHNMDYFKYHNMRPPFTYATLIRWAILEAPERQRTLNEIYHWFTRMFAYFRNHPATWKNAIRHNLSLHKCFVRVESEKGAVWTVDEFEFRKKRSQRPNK
The experiment in a line: PD-seq (MBP pull-down with sequencing). As to conditions: 20 mM Tris-HCl pH 7.5, 100 mM NaCl, 1.5 mM MgCl2, 0.4 uM protein, 0.1 uM dsDNA library, 30 min, room temperature, amylose pull-down; high values mean tight binding; double strand, one strand shown.
On to “GATGATTGTTCTCCCAGCTGATGAATTGGTCGTCTCGAGTAAACAAATTTTCCTAATCTTTCTGTTCAAGCGCCATCTAC”, for which the binding signal (RPM ratio (pull-down/input)) was 0.687.

Turning to “GATGATTGTTCTCCCAGCTGATGAATTGCTACTGTCGAGTAAACAAATTTTCCTAATCTTTCTGTTCAAGCGCCATCTAC”, the binding signal (RPM ratio (pull-down/input)) was determined as 0.785.

“GATGATTGTTCTCCCAGCTGATGAATTCGCCGATTCGAGTAAACAAATTTTCCTAATCTTTCTGTTCAAGCGCCATCTAC”: the binding signal (RPM ratio (pull-down/input)) stood at 0.306.

With “GATGATTGTTCTCCCAGCTGATGAATTTAAGTATTCGAGTAAACAAATTTTCCTAATCTTTCTGTTCAAGCGCCATCTAC”, the binding signal (RPM ratio (pull-down/input)) amounted to 1.31.

With “GATGATTGTTCTCCCAGCTGATGAATTTACTATTTCGAGTAAACAAATTTTCCTAATCTTTCTGTTCAAGCGCCATCTAC”, the binding signal (RPM ratio (pull-down/input)) stood at 1.19.

Take “GATGATTGTTCTCCCAGCTGATGAATTGGATCAATCGAGTAAACAAATTTTCCTAATCTTTCTGTTCAAGCGCCATCTAC”: the binding signal (RPM ratio (pull-down/input)) was 0.26.

“GATGATTGTTCTCCCAGCTGATGAATTAGCTCGCTCGAGTAAACAAATTTTCCTAATCTTTCTGTTCAAGCGCCATCTAC”: the binding signal (RPM ratio (pull-down/input)) is 0.272.

Regarding “GATGATTGTTCTCCCAGCTGATGAATTACTCCTTTCGAGTAAACAAATTTTCCTAATCTTTCTGTTCAAGCGCCATCTAC”, the binding signal (RPM ratio (pull-down/input)) is 0.324.

For “GATGATTGTTCTCCCAGCTGATGAATTCTGCGAGTCGAGTAAACAAATTTTCCTAATCTTTCTGTTCAAGCGCCATCTAC”, the binding signal (RPM ratio (pull-down/input)) was 1.09.

With “GATGATTGTTCTCCCAGCTGATGAATTGATCATTTCGAGTAAACAAATTTTCCTAATCTTTCTGTTCAAGCGCCATCTAC”, the binding signal (RPM ratio (pull-down/input)) came to 0.757.

As to “GATGATTGTTCTCCCAGCTGATGAATTGACGTGCTCGAGTAAACAAATTTTCCTAATCTTTCTGTTCAAGCGCCATCTAC”, the binding signal (RPM ratio (pull-down/input)) worked out at 0.454.

As for “GATGATTGTTCTCCCAGCTGATGAATTCCCGATTTCGAGTAAACAAATTTTCCTAATCTTTCTGTTCAAGCGCCATCTAC”, the binding signal (RPM ratio (pull-down/input)) was 0.331.

In the case of “GATGATTGTTCTCCCAGCTGATGAATTGCATGAATCGAGTAAACAAATTTTCCTAATCTTTCTGTTCAAGCGCCATCTAC”, the binding signal (RPM ratio (pull-down/input)) worked out at 0.753.

Take “GATGATTGTTCTCCCAGCTGATGAATTAGCGGCTTCGAGTAAACAAATTTTCCTAATCTTTCTGTTCAAGCGCCATCTAC”: the binding signal (RPM ratio (pull-down/input)) was determined as 0.415.

Take “GATGATTGTTCTCCCAGCTGATGAATTTCCTGTATCGAGTAAACAAATTTTCCTAATCTTTCTGTTCAAGCGCCATCTAC”: the binding signal (RPM ratio (pull-down/input)) was found to be 0.428.

Take “GATGATTGTTCTCCCAGCTGATGAATTCTCAATCTCGAGTAAACAAATTTTCCTAATCTTTCTGTTCAAGCGCCATCTAC”: the binding signal (RPM ratio (pull-down/input)) was 0.25.

As to “GATGATTGTTCTCCCAGCTGATGAATTCGAGTTATCGAGTAAACAAATTTTCCTAATCTTTCTGTTCAAGCGCCATCTAC”, the binding signal (RPM ratio (pull-down/input)) is 0.746.

As for “GATGATTGTTCTCCCAGCTGATGAATTAAAAATTTCGAGTAAACAAATTTTCCTAATCTTTCTGTTCAAGCGCCATCTAC”, the binding signal (RPM ratio (pull-down/input)) was found to be 0.202.

With “GATGATTGTTCTCCCAGCTGATGAATTCAGTTCTTCGAGTAAACAAATTTTCCTAATCTTTCTGTTCAAGCGCCATCTAC”, the binding signal (RPM ratio (pull-down/input)) stood at 0.839.

In the case of “GATGATTGTTCTCCCAGCTGATGAATTGGTTCATTCGAGTAAACAAATTTTCCTAATCTTTCTGTTCAAGCGCCATCTAC”, the binding signal (RPM ratio (pull-down/input)) came out at 0.38.

For “GATGATTGTTCTCCCAGCTGATGAATTTGGAAGTTCGAGTAAACAAATTTTCCTAATCTTTCTGTTCAAGCGCCATCTAC”, the binding signal (RPM ratio (pull-down/input)) is 0.344.

As for “GATGATTGTTCTCCCAGCTGATGAATTGGGGGTTTCGAGTAAACAAATTTTCCTAATCTTTCTGTTCAAGCGCCATCTAC”, the binding signal (RPM ratio (pull-down/input)) was 0.812.

For the sequence “GATGATTGTTCTCCCAGCTGATGAATTATACAATTCGAGTAAACAAATTTTCCTAATCTTTCTGTTCAAGCGCCATCTAC”, the binding signal (RPM ratio (pull-down/input)) turned out to be 0.854.

Turning to “GATGATTGTTCTCCCAGCTGATGAATTAGGAAGATCGAGTAAACAAATTTTCCTAATCTTTCTGTTCAAGCGCCATCTAC”, the binding signal (RPM ratio (pull-down/input)) worked out at 0.181.

Take “GATGATTGTTCTCCCAGCTGATGAATTGAGACTTTCGAGTAAACAAATTTTCCTAATCTTTCTGTTCAAGCGCCATCTAC”: the binding signal (RPM ratio (pull-down/input)) is 1.22.

Turning to “GATGATTGTTCTCCCAGCTGATGAATTCAAAAAGTCGAGTAAACAAATTTTCCTAATCTTTCTGTTCAAGCGCCATCTAC”, the binding signal (RPM ratio (pull-down/input)) worked out at 0.151.

Regarding “GATGATTGTTCTCCCAGCTGATGAATTTAACGACTCGAGTAAACAAATTTTCCTAATCTTTCTGTTCAAGCGCCATCTAC”, the binding signal (RPM ratio (pull-down/input)) is 0.447.

As for “GATGATTGTTCTCCCAGCTGATGAATTGGTGTGCTCGAGTAAACAAATTTTCCTAATCTTTCTGTTCAAGCGCCATCTAC”, the binding signal (RPM ratio (pull-down/input)) is 1.34.

On to “GATGATTGTTCTCCCAGCTGATGAATTTGTATAGTCGAGTAAACAAATTTTCCTAATCTTTCTGTTCAAGCGCCATCTAC”, for which the binding signal (RPM ratio (pull-down/input)) amounted to 5.26.

For “GATGATTGTTCTCCCAGCTGATGAATTCGGCAGTTCGAGTAAACAAATTTTCCTAATCTTTCTGTTCAAGCGCCATCTAC”, the binding signal (RPM ratio (pull-down/input)) was determined as 0.883.

In the case of “GATGATTGTTCTCCCAGCTGATGAATTAGTAGCGTCGAGTAAACAAATTTTCCTAATCTTTCTGTTCAAGCGCCATCTAC”, the binding signal (RPM ratio (pull-down/input)) worked out at 1.42.

For “GATGATTGTTCTCCCAGCTGATGAATTAGAATTGTCGAGTAAACAAATTTTCCTAATCTTTCTGTTCAAGCGCCATCTAC”, the binding signal (RPM ratio (pull-down/input)) came to 0.707.

In the case of “GATGATTGTTCTCCCAGCTGATGAATTTGACATTTCGAGTAAACAAATTTTCCTAATCTTTCTGTTCAAGCGCCATCTAC”, the binding signal (RPM ratio (pull-down/input)) was 1.58.

For “GATGATTGTTCTCCCAGCTGATGAATTACCTGTGTCGAGTAAACAAATTTTCCTAATCTTTCTGTTCAAGCGCCATCTAC”, the binding signal (RPM ratio (pull-down/input)) was found to be 0.458.

As to “GATGATTGTTCTCCCAGCTGATGAATTCGGGCACTCGAGTAAACAAATTTTCCTAATCTTTCTGTTCAAGCGCCATCTAC”, the binding signal (RPM ratio (pull-down/input)) is 0.406.

With “GATGATTGTTCTCCCAGCTGATGAATTCGCCCGGTCGAGTAAACAAATTTTCCTAATCTTTCTGTTCAAGCGCCATCTAC”, the binding signal (RPM ratio (pull-down/input)) worked out at 0.207.

For the sequence “GATGATTGTTCTCCCAGCTGATGAATTGGACCCCTCGAGTAAACAAATTTTCCTAATCTTTCTGTTCAAGCGCCATCTAC”, the binding signal (RPM ratio (pull-down/input)) was found to be 0.269.

In the case of “GATGATTGTTCTCCCAGCTGATGAATTCGGTGCGTCGAGTAAACAAATTTTCCTAATCTTTCTGTTCAAGCGCCATCTAC”, the binding signal (RPM ratio (pull-down/input)) was 1.02.

“GATGATTGTTCTCCCAGCTGATGAATTTAGGGCCTCGAGTAAACAAATTTTCCTAATCTTTCTGTTCAAGCGCCATCTAC”: the binding signal (RPM ratio (pull-down/input)) came to 0.562.

As for “GATGATTGTTCTCCCAGCTGATGAATTTCTACGATCGAGTAAACAAATTTTCCTAATCTTTCTGTTCAAGCGCCATCTAC”, the binding signal (RPM ratio (pull-down/input)) stood at 0.215.
